# This is one part of the list.
# Key:
# Test in all cases: glycan array binding signal (z-score within array); higher = stronger binding
# Settings in all cases: glycan notation: IUPAC condensed, linker removed
# Fuc(a1-2)Gal = biological target: Fuc(a1-2)Gal
# In short: (§1)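 The binding signal is a Z-score computed within each array. Data were drawn from 3228 arrays in the Consortium for Functional Glycomics database, restricted to those with a known protein sequence. Scores were averaged over arrays of the same protein sequence at different concentrations or buffers, and over linkers, and negative values can be taken as non-binding.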
# Fuc(a1-2)Gal(b1-3)GalNAc = biological target: Fuc(a1-2)Gal(b1-3)GalNAc
# In short: as §1
# [1] = biological target: Fuc(a1-2)Gal(b1-3)GalNAc(b1-3)Gal
# In short: as §1
# [2] = biological target: Fuc(a1-2)Gal(b1-3)GalNAc(b1-3)Gal(a1-4)Gal(b1-4)Glc
# In short: as §1
# [3] = biological target: Fuc(a1-2)Gal(b1-3)GalNAc(b1-4)[Neu5Ac(a2-3)]Gal(b1-4)Glc
# In short: as §1
# Fuc(a1-2)Gal(b1-3)GlcNAc = biological target: Fuc(a1-2)Gal(b1-3)GlcNAc
# In short: as §1
# [4] = biological target: Fuc(a1-2)Gal(b1-3)GlcNAc(b1-3)Gal(b1-4)Glc
# In short: as §1
# [5] = biological target: Fuc(a1-2)Gal(b1-3)[Fuc(a1-4)]GlcNAc
# In short: as §1
# Fuc(a1-2)Gal(b1-4)Glc = biological target: Fuc(a1-2)Gal(b1-4)Glc
# In short: as §1
# Fuc(a1-2)Gal(b1-4)GlcNAc = biological target: Fuc(a1-2)Gal(b1-4)GlcNAc
# In short: as §1
# [6] = biological target: Fuc(a1-2)Gal(b1-4)GlcNAc(b1-3)Gal(b1-4)GlcNAc
# In short: as §1
# [7] = biological target: Fuc(a1-2)Gal(b1-4)GlcNAc(b1-3)Gal(b1-4)GlcNAc(b1-3)Gal(b1-4)GlcNAc
# In short: as §1
# [8] = biological target: Fuc(a1-2)Gal(b1-4)[Fuc(a1-3)]GlcNAc
# In short: as §1
# [9] = biological target: Fuc(a1-2)Gal(b1-4)[Fuc(a1-3)]GlcNAc(b1-3)Gal(b1-4)[Fuc(a1-3)]GlcNAc
# In short: as §1
# [10] = biological target: Fuc(a1-2)Gal(b1-4)[Fuc(a1-3)]GlcNAc(b1-3)Gal(b1-4)[Fuc(a1-3)]GlcNAc(b1-3)Gal(b1-4)[Fuc(a1-3)]GlcNAc
# In short: as §1
# Fuc(a1-2)GlcNAc = biological target: Fuc(a1-2)GlcNAc
# In short: as §1
# Fuc(a1-2)[Gal(a1-3)]Gal = biological target: Fuc(a1-2)[Gal(a1-3)]Gal
# In short: as §1
# [11] = biological target: Fuc(a1-2)[Gal(a1-3)]Gal(b1-3)GlcNAc
# In short: as §1
# [12] = biological target: Fuc(a1-2)[Gal(a1-3)]Gal(b1-4)Glc
# In short: as §1
# [13] = biological target: Fuc(a1-2)[Gal(a1-3)]Gal(b1-4)GlcNAc
# In short: as §1
# [14] = biological target: Fuc(a1-2)[Gal(a1-3)]Gal(b1-4)[Fuc(a1-3)]GlcNAc
# In short: as §1
# [15] = biological target: Fuc(a1-2)[Gal(a1-4)]Gal(b1-4)GlcNAc
# In short: as §1
# [16] = biological target: Fuc(a1-2)[GalNAc(a1-3)]Gal
# In short: as §1
# [17] = biological target: Fuc(a1-2)[GalNAc(a1-3)]Gal(b1-3)GlcNAc
# In short: as §1
# [18] = biological target: Fuc(a1-2)[GalNAc(a1-3)]Gal(b1-4)Glc
# In short: as §1
# [19] = biological target: Fuc(a1-2)[GalNAc(a1-3)]Gal(b1-4)GlcNAc
# In short: as §1
# [20] = biological target: Fuc(a1-2)[GalNAc(a1-3)]Gal(b1-4)[Fuc(a1-3)]GlcNAc
# In short: as §1
# [21] = biological target: Fuc(a1-2)[GalNAc(a1-4)]Gal(b1-4)GlcNAc
# In short: as §1
# [22] = biological target: Fuc(a1-2)[GalNAc(b1-3)]Gal
# In short: as §1
# Fuc(a1-3)GlcNAc = biological target: Fuc(a1-3)GlcNAc
# In short: as §1
binder,measurement,setting,value
"F17bG (Escherichia coli), Q47200 (protein) MTNFYKVFLAVFILVCCNISHAVVSFIGSTENDVGPSQGSYSSTHAMDNLPFVYNTGYNIGYQNANVWRIGGGFCVGLDGKVDLPVVGSLDGQSIYGLTEEVGLLIWMGDTNYSRGTAMSGNSWENVFSGWCVGNYLSTQGLSVHVRPVILKRNSSAQYSVQKTSIGSIRMRPYNGSSAGSVQTTVNFSLNPFTLNDTVTSCRLLTPSAVNVSLAAISAGQLPSSGDEVVAGTTSLKLQCDAGVTVWATLTDATTPSNRSDILTLTGASTATGVGLRIYKNTDSTPLKFGPDSPVKGNENQWQLSTGTETSPSVRLYVKYVNTGEGINPGTVNGISTFTFSYQ",glycan array binding signal (z-score),Fuc(a1-2)Gal,-0.621
same,glycan array binding signal (z-score),Fuc(a1-2)Gal(b1-3)GalNAc,-0.606
same,glycan array binding signal (z-score),[1],-0.486
same,glycan array binding signal (z-score),[2],-0.546
same,glycan array binding signal (z-score),[3],-0.371
same,glycan array binding signal (z-score),Fuc(a1-2)Gal(b1-3)GlcNAc,-0.591
same,glycan array binding signal (z-score),[4],-0.54
same,glycan array binding signal (z-score),[5],-0.669
same,glycan array binding signal (z-score),Fuc(a1-2)Gal(b1-4)Glc,-0.674
same,glycan array binding signal (z-score),Fuc(a1-2)Gal(b1-4)GlcNAc,-0.624
same,glycan array binding signal (z-score),[6],-0.65
same,glycan array binding signal (z-score),[7],-0.525
same,glycan array binding signal (z-score),[8],-0.545
same,glycan array binding signal (z-score),[9],-0.635
same,glycan array binding signal (z-score),[10],-0.549
same,glycan array binding signal (z-score),Fuc(a1-2)GlcNAc,-0.636
same,glycan array binding signal (z-score),Fuc(a1-2)[Gal(a1-3)]Gal,-0.551
same,glycan array binding signal (z-score),[11],-0.644
same,glycan array binding signal (z-score),[12],-0.576
same,glycan array binding signal (z-score),[13],-0.346
same,glycan array binding signal (z-score),[14],-0.631
same,glycan array binding signal (z-score),[15],-0.657
same,glycan array binding signal (z-score),[16],-0.609
same,glycan array binding signal (z-score),[17],-0.567
same,glycan array binding signal (z-score),[18],-0.624
same,glycan array binding signal (z-score),[19],-0.579
same,glycan array binding signal (z-score),[20],-0.58
same,glycan array binding signal (z-score),[21],-0.634
same,glycan array binding signal (z-score),[22],-0.63
same,glycan array binding signal (z-score),Fuc(a1-3)GlcNAc,-0.645
